Data published in article PMC12820563, “FoxP3 forms a head-to-head dimer in vivo and stabilizes its multimerization on adjacent microsatellites”.
Some of the results follow.

The sequences below were run against T1, MBP-FoxP1dN (Mus musculus, UniProt P58462 326-579) (assay: PD-seq (MBP pull-down with sequencing); 20 mM Tris-HCl pH 7.5, 100 mM NaCl, 1.5 mM MgCl2, 0.4 uM protein, 0.1 uM dsDNA library, 30 min, room temperature, amylose pull-down; high values mean tight binding). Conditions: protein: recombinant; tags: His6-MBP; chain copies: 2; dsDNA, one strand shown.
T1 sequence: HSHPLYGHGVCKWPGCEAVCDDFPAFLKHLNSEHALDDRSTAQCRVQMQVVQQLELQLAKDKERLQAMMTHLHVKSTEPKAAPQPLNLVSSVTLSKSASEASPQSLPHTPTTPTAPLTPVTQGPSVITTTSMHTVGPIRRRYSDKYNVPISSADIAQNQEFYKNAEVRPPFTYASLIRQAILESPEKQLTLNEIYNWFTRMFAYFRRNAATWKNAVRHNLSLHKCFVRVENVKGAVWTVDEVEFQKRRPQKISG
Summary of the method: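 His6-MBP-tagged mouse FoxP3 or FoxP1 fragment lacking the N-terminus, expressed in E. coli, was mixed at 0.4 µM with 0.1 µM Klenow-filled double-stranded degenerate DNA library. Incubation was 30 min at room temperature in Tris pH 7.5 buffer with NaCl and MgCl2. Complexes were caught on amylose resin and washed three times; DNA was released with proteinase K, PCR-barcoded and Illumina-sequenced. Binding is reads-per-million enrichment, pull-down over input, with replicates pooled.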

| Sequence | binding signal |
| --- | --- |
| GATGATTGTTCTCCCAGCTGATGAATTATTCACTTCGAGTAAACAAATTTTCCTAATCTTTCTGTTCAAGCGCCATCTAC | 1.05 RPM ratio (pull-down/input) |
| GATGATTGTTCTCCCAGCTGATGAATTACCCCGATCGAGTAAACAAATTTTCCTAATCTTTCTGTTCAAGCGCCATCTAC | 0.986 RPM ratio (pull-down/input) |
| GATGATTGTTCTCCCAGCTGATGAATTGGGGGACTCGAGTAAACAAATTTTCCTAATCTTTCTGTTCAAGCGCCATCTAC | 0.787 RPM ratio (pull-down/input) |
| GATGATTGTTCTCCCAGCTGATGAATTGAGGTTATCGAGTAAACAAATTTTCCTAATCTTTCTGTTCAAGCGCCATCTAC | 0.966 RPM ratio (pull-down/input) |
| GATGATTGTTCTCCCAGCTGATGAATTCGGTCTGTCGAGTAAACAAATTTTCCTAATCTTTCTGTTCAAGCGCCATCTAC | 0.775 RPM ratio (pull-down/input) |
| GATGATTGTTCTCCCAGCTGATGAATTGATAACCTCGAGTAAACAAATTTTCCTAATCTTTCTGTTCAAGCGCCATCTAC | 1 RPM ratio (pull-down/input) |
| GATGATTGTTCTCCCAGCTGATGAATTGCGTATATCGAGTAAACAAATTTTCCTAATCTTTCTGTTCAAGCGCCATCTAC | 1.23 RPM ratio (pull-down/input) |
| GATGATTGTTCTCCCAGCTGATGAATTAACGCCATCGAGTAAACAAATTTTCCTAATCTTTCTGTTCAAGCGCCATCTAC | 0.943 RPM ratio (pull-down/input) |
| GATGATTGTTCTCCCAGCTGATGAATTAGGCGTGTCGAGTAAACAAATTTTCCTAATCTTTCTGTTCAAGCGCCATCTAC | 0.926 RPM ratio (pull-down/input) |
| GATGATTGTTCTCCCAGCTGATGAATTGGATGTATCGAGTAAACAAATTTTCCTAATCTTTCTGTTCAAGCGCCATCTAC | 1.1 RPM ratio (pull-down/input) |
| GATGATTGTTCTCCCAGCTGATGAATTCTCGCTATCGAGTAAACAAATTTTCCTAATCTTTCTGTTCAAGCGCCATCTAC | 1.05 RPM ratio (pull-down/input) |
| GATGATTGTTCTCCCAGCTGATGAATTACTATTATCGAGTAAACAAATTTTCCTAATCTTTCTGTTCAAGCGCCATCTAC | 1.87 RPM ratio (pull-down/input) |
| GATGATTGTTCTCCCAGCTGATGAATTATGGCCCTCGAGTAAACAAATTTTCCTAATCTTTCTGTTCAAGCGCCATCTAC | 0.876 RPM ratio (pull-down/input) |
| GATGATTGTTCTCCCAGCTGATGAATTTGCCATCTCGAGTAAACAAATTTTCCTAATCTTTCTGTTCAAGCGCCATCTAC | 1.02 RPM ratio (pull-down/input) |
| GATGATTGTTCTCCCAGCTGATGAATTTTATATCTCGAGTAAACAAATTTTCCTAATCTTTCTGTTCAAGCGCCATCTAC | 0.891 RPM ratio (pull-down/input) |
| GATGATTGTTCTCCCAGCTGATGAATTGGCCCCTTCGAGTAAACAAATTTTCCTAATCTTTCTGTTCAAGCGCCATCTAC | 0.842 RPM ratio (pull-down/input) |
| GATGATTGTTCTCCCAGCTGATGAATTCTTGCTGTCGAGTAAACAAATTTTCCTAATCTTTCTGTTCAAGCGCCATCTAC | 1.45 RPM ratio (pull-down/input) |
| GATGATTGTTCTCCCAGCTGATGAATTAATGATATCGAGTAAACAAATTTTCCTAATCTTTCTGTTCAAGCGCCATCTAC | 1.11 RPM ratio (pull-down/input) |
| GATGATTGTTCTCCCAGCTGATGAATTTCCGGTTTCGAGTAAACAAATTTTCCTAATCTTTCTGTTCAAGCGCCATCTAC | 0.821 RPM ratio (pull-down/input) |
| GATGATTGTTCTCCCAGCTGATGAATTTAGTGGCTCGAGTAAACAAATTTTCCTAATCTTTCTGTTCAAGCGCCATCTAC | 1 RPM ratio (pull-down/input) |
| GATGATTGTTCTCCCAGCTGATGAATTGACTTTGTCGAGTAAACAAATTTTCCTAATCTTTCTGTTCAAGCGCCATCTAC | 1.02 RPM ratio (pull-down/input) |

| Sequence | binding signal |
| --- | --- |
| GATGATTGTTCTCCCAGCTGATGAATTTGAACAGTCGAGTAAACAAATTTTCCTAATCTTTCTGTTCAAGCGCCATCTAC | 0.84 RPM ratio (pull-down/input) |
| GATGATTGTTCTCCCAGCTGATGAATTCCAACTGTCGAGTAAACAAATTTTCCTAATCTTTCTGTTCAAGCGCCATCTAC | 0.853 RPM ratio (pull-down/input) |
| GATGATTGTTCTCCCAGCTGATGAATTCCCGCCGTCGAGTAAACAAATTTTCCTAATCTTTCTGTTCAAGCGCCATCTAC | 0.803 RPM ratio (pull-down/input) |
| GATGATTGTTCTCCCAGCTGATGAATTTGGATGCTCGAGTAAACAAATTTTCCTAATCTTTCTGTTCAAGCGCCATCTAC | 1.3 RPM ratio (pull-down/input) |
| GATGATTGTTCTCCCAGCTGATGAATTTTAAAAGTCGAGTAAACAAATTTTCCTAATCTTTCTGTTCAAGCGCCATCTAC | 0.811 RPM ratio (pull-down/input) |
| GATGATTGTTCTCCCAGCTGATGAATTCGCCCGCTCGAGTAAACAAATTTTCCTAATCTTTCTGTTCAAGCGCCATCTAC | 0.777 RPM ratio (pull-down/input) |
| GATGATTGTTCTCCCAGCTGATGAATTATGGGGTTCGAGTAAACAAATTTTCCTAATCTTTCTGTTCAAGCGCCATCTAC | 0.87 RPM ratio (pull-down/input) |
| GATGATTGTTCTCCCAGCTGATGAATTATTAGGATCGAGTAAACAAATTTTCCTAATCTTTCTGTTCAAGCGCCATCTAC | 0.992 RPM ratio (pull-down/input) |
| GATGATTGTTCTCCCAGCTGATGAATTTACCCGGTCGAGTAAACAAATTTTCCTAATCTTTCTGTTCAAGCGCCATCTAC | 0.927 RPM ratio (pull-down/input) |
| GATGATTGTTCTCCCAGCTGATGAATTTTTACGTTCGAGTAAACAAATTTTCCTAATCTTTCTGTTCAAGCGCCATCTAC | 1.03 RPM ratio (pull-down/input) |
| GATGATTGTTCTCCCAGCTGATGAATTGGGTTAATCGAGTAAACAAATTTTCCTAATCTTTCTGTTCAAGCGCCATCTAC | 0.898 RPM ratio (pull-down/input) |
| GATGATTGTTCTCCCAGCTGATGAATTACCGGTATCGAGTAAACAAATTTTCCTAATCTTTCTGTTCAAGCGCCATCTAC | 1.05 RPM ratio (pull-down/input) |
| GATGATTGTTCTCCCAGCTGATGAATTCCCGGTGTCGAGTAAACAAATTTTCCTAATCTTTCTGTTCAAGCGCCATCTAC | 0.755 RPM ratio (pull-down/input) |
| GATGATTGTTCTCCCAGCTGATGAATTACCGGTTTCGAGTAAACAAATTTTCCTAATCTTTCTGTTCAAGCGCCATCTAC | 0.982 RPM ratio (pull-down/input) |
| GATGATTGTTCTCCCAGCTGATGAATTGTAAGTCTCGAGTAAACAAATTTTCCTAATCTTTCTGTTCAAGCGCCATCTAC | 0.976 RPM ratio (pull-down/input) |
| GATGATTGTTCTCCCAGCTGATGAATTACGCAGTTCGAGTAAACAAATTTTCCTAATCTTTCTGTTCAAGCGCCATCTAC | 1.03 RPM ratio (pull-down/input) |
| GATGATTGTTCTCCCAGCTGATGAATTGGTATATTCGAGTAAACAAATTTTCCTAATCTTTCTGTTCAAGCGCCATCTAC | 1.24 RPM ratio (pull-down/input) |
| GATGATTGTTCTCCCAGCTGATGAATTAGGCGTTTCGAGTAAACAAATTTTCCTAATCTTTCTGTTCAAGCGCCATCTAC | 0.871 RPM ratio (pull-down/input) |
| GATGATTGTTCTCCCAGCTGATGAATTGGCGTTATCGAGTAAACAAATTTTCCTAATCTTTCTGTTCAAGCGCCATCTAC | 1 RPM ratio (pull-down/input) |
| GATGATTGTTCTCCCAGCTGATGAATTTGGTTGGTCGAGTAAACAAATTTTCCTAATCTTTCTGTTCAAGCGCCATCTAC | 0.868 RPM ratio (pull-down/input) |
| GATGATTGTTCTCCCAGCTGATGAATTGTCGTACTCGAGTAAACAAATTTTCCTAATCTTTCTGTTCAAGCGCCATCTAC | 1.07 RPM ratio (pull-down/input) |

| Sequence | binding signal |
| --- | --- |
| GATGATTGTTCTCCCAGCTGATGAATTCGTCTCATCGAGTAAACAAATTTTCCTAATCTTTCTGTTCAAGCGCCATCTAC | 0.908 RPM ratio (pull-down/input) |
| GATGATTGTTCTCCCAGCTGATGAATTATAACGCTCGAGTAAACAAATTTTCCTAATCTTTCTGTTCAAGCGCCATCTAC | 0.983 RPM ratio (pull-down/input) |
| GATGATTGTTCTCCCAGCTGATGAATTATCCCCCTCGAGTAAACAAATTTTCCTAATCTTTCTGTTCAAGCGCCATCTAC | 0.87 RPM ratio (pull-down/input) |
| GATGATTGTTCTCCCAGCTGATGAATTGCAGGTCTCGAGTAAACAAATTTTCCTAATCTTTCTGTTCAAGCGCCATCTAC | 0.975 RPM ratio (pull-down/input) |
| GATGATTGTTCTCCCAGCTGATGAATTGCGGTGCTCGAGTAAACAAATTTTCCTAATCTTTCTGTTCAAGCGCCATCTAC | 0.929 RPM ratio (pull-down/input) |
| GATGATTGTTCTCCCAGCTGATGAATTGCCCCGCTCGAGTAAACAAATTTTCCTAATCTTTCTGTTCAAGCGCCATCTAC | 0.861 RPM ratio (pull-down/input) |
| GATGATTGTTCTCCCAGCTGATGAATTATACTGGTCGAGTAAACAAATTTTCCTAATCTTTCTGTTCAAGCGCCATCTAC | 1.03 RPM ratio (pull-down/input) |
| GATGATTGTTCTCCCAGCTGATGAATTGGGTGTCTCGAGTAAACAAATTTTCCTAATCTTTCTGTTCAAGCGCCATCTAC | 0.801 RPM ratio (pull-down/input) |
| GATGATTGTTCTCCCAGCTGATGAATTGGTCTGCTCGAGTAAACAAATTTTCCTAATCTTTCTGTTCAAGCGCCATCTAC | 0.784 RPM ratio (pull-down/input) |
| GATGATTGTTCTCCCAGCTGATGAATTTTTTTACTCGAGTAAACAAATTTTCCTAATCTTTCTGTTCAAGCGCCATCTAC | 0.958 RPM ratio (pull-down/input) |
| GATGATTGTTCTCCCAGCTGATGAATTTCTCCCATCGAGTAAACAAATTTTCCTAATCTTTCTGTTCAAGCGCCATCTAC | 0.923 RPM ratio (pull-down/input) |
| GATGATTGTTCTCCCAGCTGATGAATTGTCTTTGTCGAGTAAACAAATTTTCCTAATCTTTCTGTTCAAGCGCCATCTAC | 1.17 RPM ratio (pull-down/input) |
| GATGATTGTTCTCCCAGCTGATGAATTATGGATATCGAGTAAACAAATTTTCCTAATCTTTCTGTTCAAGCGCCATCTAC | 1.07 RPM ratio (pull-down/input) |
| GATGATTGTTCTCCCAGCTGATGAATTCATCATTTCGAGTAAACAAATTTTCCTAATCTTTCTGTTCAAGCGCCATCTAC | 0.999 RPM ratio (pull-down/input) |
| GATGATTGTTCTCCCAGCTGATGAATTGGTAGACTCGAGTAAACAAATTTTCCTAATCTTTCTGTTCAAGCGCCATCTAC | 0.832 RPM ratio (pull-down/input) |
| GATGATTGTTCTCCCAGCTGATGAATTAGAGGCGTCGAGTAAACAAATTTTCCTAATCTTTCTGTTCAAGCGCCATCTAC | 1.11 RPM ratio (pull-down/input) |
| GATGATTGTTCTCCCAGCTGATGAATTACCGCCGTCGAGTAAACAAATTTTCCTAATCTTTCTGTTCAAGCGCCATCTAC | 0.907 RPM ratio (pull-down/input) |
| GATGATTGTTCTCCCAGCTGATGAATTTGGAATTTCGAGTAAACAAATTTTCCTAATCTTTCTGTTCAAGCGCCATCTAC | 0.923 RPM ratio (pull-down/input) |
| GATGATTGTTCTCCCAGCTGATGAATTGACGGGGTCGAGTAAACAAATTTTCCTAATCTTTCTGTTCAAGCGCCATCTAC | 0.844 RPM ratio (pull-down/input) |
| GATGATTGTTCTCCCAGCTGATGAATTAGCACCATCGAGTAAACAAATTTTCCTAATCTTTCTGTTCAAGCGCCATCTAC | 0.966 RPM ratio (pull-down/input) |
| GATGATTGTTCTCCCAGCTGATGAATTATTCATATCGAGTAAACAAATTTTCCTAATCTTTCTGTTCAAGCGCCATCTAC | 1.19 RPM ratio (pull-down/input) |
